Laboratory results published in PubChem BioAssay AID1346428 (National Center for Advancing Translational Sciences (NCATS), 2018).
In all, about 48,000 compounds went through this assay and about 1,200 (2.5%) were called active. About 2% were inconclusive and are not listed.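 How the source made its calls: active means activation of at least 60% and not above a set upper limit (about 1 call in 100 departs from these limits); inconclusive means activation of 40% to 60%, or above that upper limit; inactive means activation under 40%.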 Some of the results follow.

target: Probable G-protein coupled receptor 32 (Homo sapiens) (UniProt O75388); assay: qHTS for Agonists of Human Resolvin D1 Receptor DRV1; conditions: CHO-K1 GPR32 beta-arrestin PathHunter luminescence, 90 min; at 76.9 µM; active compounds read high; zero percent set by DMSO-only wells; further: 0% is about no effect
In short: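 CHO-K1 cells stably expressing ProLink-tagged GPR32 and Enzyme Activator-tagged beta-arrestin were seeded at 2,500 cells/well overnight, exposed to compounds for 90 min at 37 °C, then read by beta-Gal complementation chemiluminescence after 1 h detection reagent.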

UniProt O75388, sequence (O75388 whole entry, looked up): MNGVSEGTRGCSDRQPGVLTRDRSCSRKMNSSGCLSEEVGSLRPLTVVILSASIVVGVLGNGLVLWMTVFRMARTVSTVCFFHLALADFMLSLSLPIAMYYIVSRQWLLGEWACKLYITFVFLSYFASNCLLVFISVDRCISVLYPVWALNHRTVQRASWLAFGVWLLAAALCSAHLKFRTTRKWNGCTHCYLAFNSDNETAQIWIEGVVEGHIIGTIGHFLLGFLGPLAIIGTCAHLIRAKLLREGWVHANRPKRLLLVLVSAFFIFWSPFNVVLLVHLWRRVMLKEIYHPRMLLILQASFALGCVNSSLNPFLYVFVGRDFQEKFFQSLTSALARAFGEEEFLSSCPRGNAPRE

activation, active:
COc1ccc(CCNc2ncnc3c2cnn3-c2ccc(F)cc2)cc1 66.4%

activation, inactive:
Cn1c(=O)c2c(ncn2CCO)n(C)c1=O 1.03%
CC1=C(c2ccc(C(C)C)cc2)S(=O)(=O)NC1=NCc1ccc(OC(C)C)cc1 -12.7%
COc1ccc(NC(=O)CCCS(=O)(=O)c2nc(-c3ccccc3OC)cc(C(F)(F)F)n2)c(OC)c1 27.1%
CC1CCN(CCCNC(=O)CN2C(=O)CSc3ccc(S(=O)(=O)N4CCCCC4)cc32)CC1 -20%
COc1ccc(C(C)NC(=O)CN(c2cc(OC)ccc2OC)S(=O)(=O)c2ccccc2)cc1 (centres undefined) -17.2%
Cc1ccc(CNC(=O)C2CCCN(c3nc4ccccc4n4cccc34)C2)cc1 (centres undefined) -40.7%
COCCn1c(CNC(=O)c2ccccc2C)nc2cccnc21 -8.84%
Cc1ccc(C)c(CN2CCC(CNC(=O)C(CC(C)C)N3Cc4ccccc4C3=O)CC2)c1 (centres undefined) -21.6%
COc1ccc(NC(=O)Nc2cccc(-c3noc(C)n3)c2)cc1 -6.01%
O=C(c1cccs1)N1CCCc2cc(NS(=O)(=O)c3ccc(Br)cc3)ccc21 -17.7%
CCc1cccc(C)c1NC(=O)C1CCN(S(=O)(=O)c2cc(Br)cc3c2N(C(C)=O)CC3)CC1 -0.323%
Brc1cccc(-c2nn(-c3ccccc3)c3c2cnc2cc4c(cc23)OCO4)c1 5.6%
O=C(NCc1ccccc1Cl)c1ccc2c(c1)ncn2-c1cccc(F)c1 -13.1%
COc1ccc(-n2c(CC3C(=O)Nc4ccc(C)cc43)nc3ccccc3c2=O)cc1 (centres undefined) -4.76%
COc1cccc(-n2ccnc2SCC(=O)Nc2cccc3ccccc23)c1 -8.92%
COc1ccc(-c2oc3ncn4nc(-c5ccccc5OC)nc4c3c2-c2ccc(OC)cc2)cc1 -12.9%
COc1cccc(CNC(=O)Nc2cn(CC(C)C)c(=O)c3ccccc23)c1 -62.8%
COc1ccc(OCc2ccc(-c3nc(C#N)c(NCc4ccc(F)cc4)o3)o2)cc1 -15.2%
Cc1nc(N2CCCC2)ncc1C(=O)Nc1ccc(OC(F)(F)F)cc1 39.4%
Cc1nnc2c3ccccc3nc(Nc3ccc(F)cc3Cl)n12 4.45%
CCOc1ccc(-n2c(-c3ccc(Br)cc3)cc3c2CC(C)(C)CC3=O)cc1 -15.9%
CCOC(=O)c1cc(-c2ccc(F)cc2)n(CCC(=O)Nc2nc3cc(C)c(C)cc3s2)c1C -15.9%
Cc1ccc2c(CC(=O)Nc3nnc(C(C)C)s3)coc2c1C 24.9%
COc1cc(OC)cc(-n2c(=O)c3sccc3n(Cc3cc(=O)n4c(C)cccc4n3)c2=O)c1 -3.71%
Cc1cccc(N(C)S(=O)(=O)c2nnc(NC(=O)C(C)(C)C)s2)c1 -10.6%
Cc1ccc(Cl)cc1NC(=O)Cn1nnc2sc3c(c2c1=O)CCC(C(C)(C)C)C3 (centres undefined) -9.63%
Brc1ccc(CN2CCc3nc(Nc4ccccc4)ncc3C2)s1 -23.1%
O=C(c1ccc2c(c1)N(Cc1ccccc1F)C(=O)c1ccccc1S2=O)N1CCC(Cc2ccccc2)CC1 (centres undefined) -20.8%
COc1ccc(N(Cc2cc3cc(OC)ccc3[nH]c2=O)C(=O)c2cccc(Cl)c2)cc1 -10%
COc1ccc(OC)c(CNC(=O)c2cc3c(=O)oc4ccc(C)cc4c3s2)c1 3.95%
CCOC(=O)CSc1nnc(-c2ccc(OC)cc2)o1 -6.44%
CCN(CC)C(=O)c1sc2c(c1C)c(=O)n(-c1ccccc1)c(=O)n2CC(=O)N(CC)c1cccc(C)c1 -15.3%
COc1cc(C(=O)Nc2cc(C)c(O)c(-c3nc4cc(Cl)ccc4o3)c2)cc(OC)c1OC -4.01%
CCCOc1ccc(C(=O)N(Cc2ccc(Cl)cc2)Cc2ccco2)cc1 -34.7%
Cc1cn2c(=O)cc(COC(=O)COc3ccc(C)c(C)c3)nc2s1 -8.39%
CCCCN(C)C(=O)CN1C(=O)c2cccnc2Oc2ccc(Cl)cc21 -11.7%
CN(C(=O)CSc1nncn2c1cc1occc12)c1ccccc1 -26%
COc1cc(NC(=O)CCS(=O)(=O)c2ccc(Br)cc2)cc(OC)c1 -7%
Cc1ccc(CNC(=O)c2ccc3c(c2)NC(=O)C(CS(=O)(=O)Cc2cccc(C)c2)N3)cc1 (centres undefined) -33.9%
CC(CCc1ccc2c(c1)OCO2)NN (centres undefined) 44.1%
COc1ccc(Cn2ccn(CC(=O)Nc3cc(C)ccc3C)c(=O)c2=O)cc1 -13.1%
O=C(NCc1cccs1)c1ccc2c(c1)sc1nc(-c3ccccc3)cn12 -5.66%
CC(C)c1ccc(-c2noc(SCC(=O)N3CCN(c4ccccc4F)CC3)n2)cc1 6.32%
Cn1c(CNC(=O)CSc2nc(-c3ccccc3F)nc3cc(=O)[nH]n23)nc2ccccc21 -45.1%
Cc1ccc(NC(=O)Cn2c(=O)ccc3cc(S(=O)(=O)N4CCCC4)ccc32)cc1C 12%
Cc1c(C(=O)N2CCC(C(=O)Nc3ccc(F)c(Cl)c3)CC2)sc2nc[nH]c(=O)c12 -3.97%
COc1cc(CN(C(=O)c2ccccc2)c2ccccn2)cc(OC)c1OC 11.4%
CCCOc1ccc(C2C(=O)N(C3CCCCCC3)CC(=O)N2C(C)C)cc1OC (centres undefined) -11.1%
Cc1cc2nn(-c3ccc(F)cc3)nc2cc1NC(=O)c1ccc(C(C)(C)C)cc1 -5.68%
COc1ccc(-c2cn3cccnc3n2)cc1NC(=O)c1ccccc1C(F)(F)F -0.393%
COc1ccc2c(c1)c(=O)c(C(=O)c1ccc(F)cc1)cn2CC(=O)Nc1ccc2c(c1)OCCO2 -9.65%
CCCn1c(CNC(=O)c2ccc(F)cc2)nc2ccccc21 -5.87%
O=C(CCCN1C(=O)C(c2ccccc2)Oc2cccnc21)Nc1ccccc1C(F)(F)F (centres undefined) -6.7%
